# Data published in the supplement of paper PMC3334620.
# Whole data set: some 33,000 sequences, median “E-score (-0.5 to 0.5)” near -0.041, cut for the highest 2% near 0.37. This is one part of the list.
# Molecular target: T1, Ecm22 (UniProt Q05958)
# T1 sequence: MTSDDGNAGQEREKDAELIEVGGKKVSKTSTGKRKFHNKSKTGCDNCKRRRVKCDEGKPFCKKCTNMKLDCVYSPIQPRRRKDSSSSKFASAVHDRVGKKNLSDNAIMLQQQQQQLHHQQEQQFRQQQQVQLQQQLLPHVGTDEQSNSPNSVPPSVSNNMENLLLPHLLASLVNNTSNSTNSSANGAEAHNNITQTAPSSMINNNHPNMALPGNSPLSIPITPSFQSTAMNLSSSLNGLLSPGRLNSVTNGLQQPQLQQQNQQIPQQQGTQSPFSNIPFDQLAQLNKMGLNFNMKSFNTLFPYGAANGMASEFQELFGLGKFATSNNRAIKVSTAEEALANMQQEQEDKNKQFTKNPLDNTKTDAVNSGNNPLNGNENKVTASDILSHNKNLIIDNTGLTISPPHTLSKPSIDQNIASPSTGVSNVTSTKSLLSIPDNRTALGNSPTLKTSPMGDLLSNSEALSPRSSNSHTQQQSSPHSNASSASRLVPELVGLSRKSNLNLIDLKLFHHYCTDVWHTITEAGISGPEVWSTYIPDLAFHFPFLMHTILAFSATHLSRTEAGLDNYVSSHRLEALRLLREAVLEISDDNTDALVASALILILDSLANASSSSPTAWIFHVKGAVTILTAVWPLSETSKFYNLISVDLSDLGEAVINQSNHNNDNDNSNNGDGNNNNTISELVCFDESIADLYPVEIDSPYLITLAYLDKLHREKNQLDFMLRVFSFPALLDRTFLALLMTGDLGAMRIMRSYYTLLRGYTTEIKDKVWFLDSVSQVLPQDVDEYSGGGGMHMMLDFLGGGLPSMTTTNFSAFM
# Test: PBM E-score (8-mer binding enrichment) (E-score (-0.5 to 0.5)); higher = stronger / more preferred TF binding; most listed sequences are background and not binding sites
# Conditions: protein concentration: 200 nM; construct: GST-full length
# Outline: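 Full-length yeast transcription factors or their DNA-binding domains, GST-tagged and expressed with PURExpress, were applied at about 100-200 nM to universal all-10-mer Agilent arrays. These arrays had been made double-stranded by primer extension on fresh or once-stripped slides. Detection used fluorescent anti-GST, normalisation used masliner, and E-scores for ungapped eight-base words pooled with reverse complements came from the Universal PBM Analysis Suite.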
row,Sequence,PBM E-score
1,GTACCTAC,0.107
2,ACTTTTGC,-0.0866
3,CTAGCGTA,-0.0308
4,AGACTAGC,-0.234
5,AAGTTGCT,-0.0881
6,TCCTGGAA,-0.15
7,GATGTATA,-0.0358
8,ACTACTCC,-0.00828
9,CCCACACC,-0.0753
10,GGTGTTCA,-0.138
11,CGAGCTGA,0.227
12,AGCAGCAT,-0.0652
13,AGGTGACC,-0.203
14,ACACCAAG,-0.0985
15,CTGACGGA,-0.113
16,AATCGAGC,0.237
17,ACCGACGC,0.216
18,CCGCGTAC,0.231
19,AACTTCTG,-0.174
20,CCAAGGGA,-0.0775
21,CACGGCGA,0.0797
22,CCTTCACA,-0.13

row,Sequence,PBM E-score
1,CTATCGTC,-0.0492
2,CTGGCTTC,-0.114
3,ACGAAAAC,0.337
4,AAGCGGCT,-0.0695
5,AAAGTCGT,0.261
6,CAAAACTG,-0.155
7,ATCCCAAC,-0.0633
8,ACATGCCG,0.137
9,TATGGGGA,-0.136
10,AAGGACGT,0.0897
11,ATCGGTAC,0.249
12,TAGCGCTA,0.158
13,ATCATAGA,-0.0447
14,ATTAAACG,0.449
15,CGACTGCC,0.0232
16,ACAGCTCG,0.166
17,GACCTTCA,-0.0961
18,ACAGGCGA,-0.0932
19,CTAGTAAA,-0.032
20,AAGACTAA,-0.221
21,TGATGGAA,-0.188
22,ATGTCACA,-0.135

row,Sequence,PBM E-score
1,GTTTAAAA,0.157
2,AATGTGAG,-0.102
3,AGCAGCCG,-0.0197
4,AGAATGCG,0.0703
5,TCAGCCAA,-0.0987
6,ATCTCGCA,0.296
7,AAGTGACC,0.0136
8,ATGTTGGC,0.0586
9,CGAAGGCA,-0.0298
10,CCTTTGAC,-0.299
11,CGCGTCAC,0.0924
12,CTCTTGGC,-0.271
13,GCCATTGA,-0.0844
14,ATTTCAGG,-0.0391
15,GAAGCTGC,-0.139
16,CCAACTTA,-0.115
17,ACCCGGAA,-0.0363
18,CTGAAGGC,-0.216
19,TATTTAGA,0.00352
20,GTCTAGAA,-0.106
21,CATCCCCG,-0.0388
22,CAAAATTC,0.214

row,Sequence,PBM E-score
1,ATGATAGC,0.0564
2,AAAGCCCA,0.0429
3,GAAAGTCA,0.0984
4,AAGAATTA,-0.012
5,CCATTGTA,0.0165
6,TACAAGCA,0.0915
7,TGCCGACA,0.0514
8,AATGCACT,-0.0341
9,CCCGAAAC,0.17
10,ACGTATAT,0.371
11,ATCTGGTC,-0.187
12,TGATGCAA,-0.0173
13,GACAAACA,-0.0747
14,GGGCTTCA,-0.195
15,CAAACGCG,0.21
16,ATAGTCAG,-0.0196
17,AATTAACG,0.264
18,GCGTTAGA,-0.108
19,AACGCGAC,0.233
20,ATTACCTC,0.0459
